± gives the standard deviation of the averaged measurements. The list shows a part of the results.
System: PfAP2-LT AP2 domain (GST-tagged)
Assay: gcPBM binding intensity (ln(normalized median fluorescence intensity)); higher = stronger DNA binding
Outline: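 GST-fused DNA-binding domains of P. falciparum, expressed in E. coli, were applied at about 25 μg on average for 1 h to an Agilent 4 × 180k array of primer-extended double-stranded 36-bp intergenic genomic probes and negative controls. Binding intensity is the highest Masliner-normalised natural-log median intensity across replicate spots of either probe orientation, measured with Alexa488 anti-GST antibody and a 488 nm scan.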

Sequence | gcPBM binding intensity (ln)
ATATACTATGATAATACATGCGATAATACATTTTTA [TGCATGCA_site387] | 8.71 ± 0.33
ATCTGTCGACAGGACAGTACACAGTAGCCAGTAACT [XGTACX_site2001] | 8.95 ± 0.52
TTATATGCTCAATGTTGTACATGTAGATATATATAT [XGTACX_site8211] | 8.82 ± 0.31
ATATATATATATAGTGCACACATATAAAATATATAT [CACACA_site8884] | 9.24 ± 0.37
AAAAAAAACGAACACACACACATACAAAATCTATAT [CACACA_site6795] | 10.1 ± 0.22
TTAAAAGAATATAATGCACACATTATTTTATTTTAT [CACACA_site3772] | 8.67 ± 0.49
TATACGAAATTGTGCACACATATATTTATGTATGTA [CACACA_site1509] | 9.18 ± 0.34
AATACATAATAACATGTACACACATTCTTCTATAAA [CACACA_site9344] | 9.06 ± 0.44
TACCCACGTATATATATACACACTAATATACACCCA [CACACA_site9381] | 9.13 ± 0.28
ATTTATATATAATTTTGTACGAAAAAAATAAGGTAT [XGTACX_site3578] | 8.62 ± 0.35
TATATATTTATTAAATGTACATAACAAAAATGGTAT [XGTACX_site3577] | 8.69 ± 0.44
AAATAAAGTAAAATATGTACATAAATTAAAACACAT [XGTACX_site8539] | 9.2 ± 0.42
TGCATACATAAATGTATATATTAATATATATCATAT [GTGCAC_negctrl_site252] | 8.71 ± 0.39
TTAAATGAAAAAATATGTACGTATAATAAGAAATAT [XGTACX_site6619] | 8.87 ± 0.43
GTATGAGTCGTAGAGTGTACTCTGGAGAAAACTACA [XGTACX_site4942] | 8.79 ± 0.5
TATTTTTTCTTAAACACACACATATATATATAGAAT [CACACA_site2836] | 8.91 ± 0.39
TTTTTTCTTAGTTATACATGCAAAATAAATAAATAA [TGCATGCA_site410] | 8.18 ± 0.43
TATAACGCTTGCAGCTGTACAAAAATAATCAAACTG [XGTACX_site2464] | 8.66 ± 0.43
AATGCTATCATTAATGCACACATTTAAACTTAATAT [CACACA_site5878] | 8.91 ± 0.4

Sequence | gcPBM binding intensity (ln)
TTTTTTTTTTTGTTCACACATATACTTTTATTTTGG [CACACA_site4250] | 8.81 ± 0.49
GGAAACCTTTTTTTTACACACAATATATTAATACTT [CACACA_site1403] | 9.01 ± 0.47
TTTGTTTTAAATATTATACACACGTAAAAGTAGAAT [CACACA_site214] | 8.71 ± 0.3
CAAGAAAATGGACACACACACATATATATATATATA [CACACA_site6010] | 10.37 ± 0.092
CAAATTTAAAAAAAATCACACACAGAAAAAAAAAAA [CACACA_site8728] | 9.06 ± 0.47
ATATAAATACGGTGTGCACACACATAATATATATAT [CACACA_site2271] | 9.8 ± 0.33
TACACCCTATTTTTATGTACTTATTTGATTTACACA [XGTACX_site8172] | 8.97 ± 0.52
TGTATACGCATATGTACACACATATATATGTATATG [CACACA_site3087] | 9.14 ± 0.34
GTGTAATTATCAGCATAAATATGGTACATACATAAA [CACACA_negctrl_site323] | 8.96 ± 0.49
AAAAGATTTATACATACACACATATTATAGTCACAT [CACACA_site7701] | 9.21 ± 0.38
CAAAATATAGATGACACACACAAAAAAAGTATATTA [CACACA_site6848] | 9.47 ± 0.63
AAGCTTCCTTAATATACACACATATCTGAGTATATT [CACACA_site5939] | 9.11 ± 0.31
AGATAAAAAAAGTACACACACACATATATATATATA [CACACA_site3072] | 10.02 ± 0.014
CATTTACCCTTATTAACACACAAAATATAATACGCT [CACACA_site2565] | 8.98 ± 0.49
AAAATTATAATATATACACACATATATATATTAAAT [CACACA_site473] | 8.88 ± 0.35
ATAGAAAGTGACAATTGTACATACATATTATATATA [XGTACX_site4390] | 9.01 ± 0.54
TTCTTGGAATACAAGTGTACTTTATTATTATTATTA [XGTACX_site5997] | 8.65 ± 0.49
AAAAAAAAAAAAAAAAAAAAATTTCAATTATATTGA [GTGCAC_negctrl_site642] | 8.49 ± 0.15
TTTTTTTTTGCCTACTGTACTATTTTTGAGCTCACC [XGTACX_site7967] | 8.94 ± 0.58

Sequence | gcPBM binding intensity (ln)
ACGTAAAATTATTATTGTACATGTAAATAATTTGGA [XGTACX_site8154] | 8.97 ± 0.5
TATATTAAACATATATGTACATATTTTTTCTGAACA [XGTACX_site5390] | 8.66 ± 0.4
TATTGTTTTTTTGATTTTTTTTTTTTTTTTAATGAA [CACACA_negctrl_site824] | 8.26 ± 0.49
AATATCAATGATGTTACATGCAAGAGAATCCACAAA [TGCATGCA_site678] | 8.96 ± 0.42
AATATTTTCTGTAATACTTCTTTTCAATTTATTTCG [CACACA_negctrl_site1390] | 8.66 ± 0.53
ACCAAATCATATATAGCACACAAATTCTTTATTATT [CACACA_site8911] | 8.94 ± 0.38
AATGTATAATTATAATGTACAAATAATATATAATAT [XGTACX_site5407] | 9 ± 0.34
TAACTCCACAAATAATGTACATATATCACTATATTT [XGTACX_site4911] | 8.93 ± 0.38
TACATATGAAAATACACACATACATACATATATATA [CACACA_site1673] | 9.21 ± 0.34
TATATAATATATATTTTATATTTGTAATAATTTTTT [GTGCAC_negctrl_site497] | 8.34 ± 0.4
ATTTACATTCACTTATGTACTTATATAATTTTATTT [XGTACX_site8150] | 9.05 ± 0.49
GCTCAATTTTTGGGTACACACAAATGTATAAGAATA [CACACA_site7178] | 8.86 ± 0.37
TTTTTCTAATTATGCACACATATCAAAATATTCAAT [CACACA_site2749] | 8.79 ± 0.46
ATATATATAGAAATATGTACGAAAAAAATATCACAT [XGTACX_site746] | 9.02 ± 0.35
TATTTATTTTATATATGTACATAATATATTCTTATA [XGTACX_site1619] | 8.73 ± 0.46
TATATATATATATATGTGCACTGAAAGAATTATACA [GTGCAC_site9586] | 9.58 ± 0.057
AATAAGCTCACGTGTCGTACATTTTTTAAAACAACC [XGTACX_site4707] | 8.85 ± 0.42
TCAAAAAAAAAAAAAAAAAAAAAAAAAAAAAAAAAA [CACACA_negctrl_site1753] | 8.04 ± 0.22
